{
  "source": "patent US20150272935A1",
  "about": "“Use of a Factor Xa Inhibitor for Treating and Preventing Bleeding Events And Related Disorders in Patients Having Sensitivity to Vitamin K Antagonists Used As Anticoagulants” (priority 2014, published 2015)",
  "key": {"[1]": {"system": "patients with atrial fibrillation (AF)", "experiment": "ENGAGE AF-TIMI 48 genetic analysis: safety (bleeding) outcomes by genotype bin", "conditions": "for HR for bleeding: first 90 days; for HR (95% CI) for any overt bleeding: trial overall", "protocol": "The pre-specified genetic analysis included 14,348 participants, who were genotyped for functional genetic variants in CYP2C9 and VKORC1. The relationships among genotype, pharmacologic response, and clinical outcomes during oral anticoagulant therapy were tested.\nThe INR values were measured using an encrypted point-of-care device.\nDuring follow-up, safety and efficacy were recorded. A clinical endpoint committee, unaware of study treatment, adjudicated all deaths and suspected cases of bleeding, cerebrovascular events, systemic embolic event (SEE), and myocardial infarction (MI). Any overt bleeding was defined as ISTH major, clinically relevant non-major, and minor bleeding.\nFor bleeding events, a “major bleeding event” is defined as a clinically overt bleeding event (i.e., bleeding that is visualized by examination or radiologic imaging) that meets ≧1 of the following: 1. fatal bleeding; 2. Symptomatic bleeding in a critical area or organ, such as retroperitoneal, intracranial, intraocular, intraspinal, intraarticular, pericardial, or intramuscular with compartment syndrome; 3. […] Each 1 unit of packed red blood cell or whole blood is counted as a 1.0-g/dL decrease in hemoglobin. In the case of surgical procedural-related bleeding, the bleeding must be in excess of that normally associated with the surgery/procedure. In the absence of hemoglobin data, a fall of hematocrit of ≧6.0%, adjusted for transfusion, will satisfy the criteria for a major bleeding event.\nMajor bleeding events may also be further sub-classified as life threatening or non-life threatening. A “life-threatening major bleed” is defined as a bleeding event that either is intracranial or is associated with hemodynamic compromise requiring intervention. A “clinically relevant nonmajor bleeding event” is defined as a clinically overt bleeding event that requires medical attention.\nAll other events (e.g., decline in hemoglobin with no overt bleeding event) were classified as “no bleeding events.”\n(http//www.accessdata.fda.gov/drugsatfda_docs/label/2010/009218s1081b1.pdf).\nCox proportional hazards models were used to compare the bleeding and efficacy outcomes among patients using the normal responders as the referent group. Any overt bleeding was evaluated with subcategories of bleeding tested for directional consistency based on hazard ratios and 95% confidence intervals. Efficacy analyses included ischemic stroke and SEE, in addition to mortality.\nAnalyses were conducted among randomized patients with a genetic sample (N=14,348) who received at least one dose of study drug and incorporated an “on-treatment” period, defined as the time between first study-drug dose and the earlier of three days post last dose or end of the treatment period. In a sensitivity analysis, safety and efficacy analyses were adjusted for covariates that differed across genotype bins (race, region, creatinine clearance, and weight) and previous exposure to a VKA."}, "[2]": {"system": "patients with atrial fibrillation (AF)", "conditions": "edoxaban treated subjects"}, "[3]": {"conditions": "0-90 Days, Normal Responder, Edoxaban High Dose vs. Warfarin"}, "[4]": {"conditions": "0-90 Days, Normal Responder, Edoxaban Low Dose vs. Warfarin"}, "[5]": {"conditions": "Beyond 90 Days, Highly Sensitive, Edoxaban High Dose"}, "[6]": {"conditions": "Beyond 90 Days, Highly Sensitive, Edoxaban Low Dose"}, "[7]": {"conditions": "Beyond 90 Days, Highly Sensitive, Edoxaban Low Dose vs. Warfarin"}, "[8]": {"conditions": "Beyond 90 Days, Normal Responder, Edoxaban High Dose"}, "[9]": {"conditions": "Beyond 90 Days, Normal Responder, Edoxaban High Dose vs. Warfarin"}, "[10]": {"conditions": "Beyond 90 Days, Normal Responder, Edoxaban Low Dose"}, "[11]": {"conditions": "Beyond 90 Days, Normal Responder, Edoxaban Low Dose vs. Warfarin"}, "[12]": {"conditions": "Beyond 90 Days, Sensitive, Edoxaban High Dose"}, "[13]": {"conditions": "Beyond 90 Days, Sensitive, Edoxaban High Dose vs. Warfarin"}, "[14]": {"conditions": "Beyond 90 Days, Sensitive, Edoxaban Low Dose"}, "[15]": {"conditions": "Beyond 90 Days, Sensitive, Edoxaban Low Dose vs. Warfarin"}},
  "data": [
    {"compound": "CN1CCc2nc(C(=O)N[C@@H]3C[C@@H](C(=O)N(C)C)CC[C@@H]3NC(=O)C(=O)Nc3ccc(Cl)cn3)sc2C1.Cc1ccc(S(=O)(=O)O)cc1", "note": "[Edoxaban]", "values": [
      {"measurement": "Intracranial Bleed, HR (95% CI)", "setting": "[1]; [3]", "value": "0.70 (0.20-2.50)"},
      {"measurement": "Life-Threatening Bleed, HR (95% CI)", "setting": "[1]; [3]", "value": "0.90 (0.30-2.68)"},
      {"measurement": "Intracranial Bleed, HR (95% CI)", "setting": "[1]; [4]", "value": "0.67 (0.19-2.39)"},
      {"measurement": "Life-Threatening Bleed, HR (95% CI)", "setting": "[1]; [4]", "value": "0.72 (0.23-2.28)"},
      {"measurement": "Life-Threatening Bleed, HR (95% CI)", "setting": "[1]; 0-90 Days, Sensitive, Edoxaban High Dose vs. Warfarin", "value": "0.35 (0.04-3.32)"},
      {"measurement": "Intracranial Bleed, HR (95% CI)", "setting": "[1]; 0-90 Days, Sensitive, Edoxaban Low Dose vs. Warfarin", "value": "0.26 (0.03-2.30)"},
      {"measurement": "Intracranial Bleed, Event Rates", "setting": "[1]; [5]", "value": 0.0, "unit": "%/year"},
      {"measurement": "Life-Threatening Bleed, Event Rates", "setting": "[1]; [5]", "value": 0.3, "unit": "%/year"},
      {"measurement": "Life-Threatening Bleed, HR (95% CI)", "setting": "[1]; Beyond 90 Days, Highly Sensitive, Edoxaban High Dose vs. Warfarin", "value": "0.27 (0.03-2.51)"},
      {"measurement": "Intracranial Bleed, Event Rates", "setting": "[1]; [6]", "value": 0.3, "unit": "%/year"},
      {"measurement": "Life-Threatening Bleed, Event Rates", "setting": "[1]; [6]", "value": 0.5, "unit": "%/year"},
      {"measurement": "Intracranial Bleed, HR (95% CI)", "setting": "[1]; [7]", "value": "0.33 (0.03-3.48)"},
      {"measurement": "Life-Threatening Bleed, HR (95% CI)", "setting": "[1]; [7]", "value": "0.48 (0.08-2.86)"},
      {"measurement": "Intracranial Bleed, Event Rates", "setting": "[1]; [8]", "value": 0.4, "unit": "%/year"},
      {"measurement": "Life-Threatening Bleed, Event Rates", "setting": "[1]; [8]", "value": 0.4, "unit": "%/year"},
      {"measurement": "Intracranial Bleed, HR (95% CI)", "setting": "[1]; [9]", "value": "0.75 (0.45-1.25)"},
      {"measurement": "Life-Threatening Bleed, HR (95% CI)", "setting": "[1]; [9]", "value": "1.04 (0.61-1.77)"},
      {"measurement": "Intracranial Bleed, Event Rates", "setting": "[1]; [10]", "value": 0.2, "unit": "%/year"},
      {"measurement": "Life-Threatening Bleed, Event Rates", "setting": "[1]; [10]", "value": 0.2, "unit": "%/year"},
      {"measurement": "Intracranial Bleed, HR (95% CI)", "setting": "[1]; [11]", "value": "0.27 (0.14-0.55)"},
      {"measurement": "Life-Threatening Bleed, HR (95% CI)", "setting": "[1]; [11]", "value": "0.40 (0.20-0.81)"},
      {"measurement": "Intracranial Bleed, Event Rates", "setting": "[1]; [12]", "value": 0.2, "unit": "%/year"},
      {"measurement": "Life-Threatening Bleed, Event Rates", "setting": "[1]; [12]", "value": 0.3, "unit": "%/year"},
      {"measurement": "Intracranial Bleed, HR (95% CI)", "setting": "[1]; [13]", "value": "0.33 (0.15-0.72)"},
      {"measurement": "Life-Threatening Bleed, HR (95% CI)", "setting": "[1]; [13]", "value": "0.31 (0.15-0.63)"},
      {"measurement": "Intracranial Bleed, Event Rates", "setting": "[1]; [14]", "value": 0.2, "unit": "%/year"},
      {"measurement": "Life-Threatening Bleed, Event Rates", "setting": "[1]; [14]", "value": 0.2, "unit": "%/year"},
      {"measurement": "Intracranial Bleed, HR (95% CI)", "setting": "[1]; [15]", "value": "0.27 (0.12-0.62)"},
      {"measurement": "Life-Threatening Bleed, HR (95% CI)", "setting": "[1]; [15]", "value": "0.24 (0.11-0.51)"},
      {"measurement": "interaction between genotype and bleeding with edoxaban versus warfarin", "setting": "[1]; beyond 90 days", "value": "no significant interaction"},
      {"measurement": "overall HR for bleeding", "setting": "[1]; beyond 90 days, high-dose edoxaban versus warfarin", "value": "0.88 (95% CI 0.81-0.95)"},
      {"measurement": "overall HR for bleeding", "setting": "[1]; beyond 90 days, low-dose edoxaban versus warfarin", "value": "0.69 (95% CI 0.63-0.75)"},
      {"measurement": "HR for bleeding", "setting": "[1]; edoxaban high-dose vs. warfarin, highly sensitive responders", "value": "0.45 (0.22-0.90)"},
      {"measurement": "HR for bleeding", "setting": "[1]; edoxaban high-dose vs. warfarin, normal responders", "value": "1.13 (0.92-1.39)"},
      {"measurement": "HR for bleeding", "setting": "[1]; edoxaban high-dose vs. warfarin, sensitive responders", "value": "0.77 (0.59-1.00)"},
      {"measurement": "HR for bleeding", "setting": "[1]; edoxaban low-dose versus warfarin, highly sensitive responders", "value": "0.21 (0.09-0.53)"},
      {"measurement": "HR for bleeding", "setting": "[1]; edoxaban low-dose versus warfarin, normal responders", "value": "0.83 (0.67-1.04)"},
      {"measurement": "HR for bleeding", "setting": "[1]; edoxaban low-dose versus warfarin, sensitive responders", "value": "0.58 (0.43-0.76)"},
      {"measurement": "major bleeding or CRNM bleeding events", "setting": "[1]; medium and high responders to warfarin sensitivity, 30 mg per day or 60 mg per day, 90 day time period", "value": "did not experience major bleeding or CRNM bleeding events"},
      {"measurement": "effect of CYP2C9 and VKORC1 variants on bleeding", "setting": "[1]; subjects with AF treated with edoxaban", "value": "no effect"},
      {"measurement": "HR (95% CI) for any overt bleeding", "setting": "[1]; high-dose edoxaban vs. warfarin", "value": "0.87 (95% CI 0.82-0.92)"},
      {"measurement": "HR (95% CI) for any overt bleeding", "setting": "[1]; low-dose edoxaban vs. warfarin", "value": "0.66 (95% CI 0.62-0.71)"},
      {"measurement": "impact of VKORC1 genotype on pharmacodynamic response (PT, anti-FXa activity, D-dimer)", "setting": "[2]", "value": "no impact"}
    ]}
  ]
}
